Laboratory results as given in the RNAGym collection of RNA variant scans (doi:10.1073/pnas.2313332121).
Variants at the floor of the assay are shown more often than the library holds them.

B1: TPR 5TU (parent)
chain: GGAUCUUCUCGAUCUAACAAAAAAGACAAAUCUGCCACAAAGCUUGAGAGCAUCUUCGGAUGCAGAGGCGGCAGCCUUCGGUGGCGCGAUAGCGCCAACGUUCUCAACUAUGACACGCAAAACGCGUGCUCCGUUGAAUGGAGUUUAUCAUG

Variants of: B1
Test: polymerase ribozyme fitness, log enrichment relative to wild type (log ratio); higher = more active; in vitro selection for triplet polymerase activity
In short: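 Mutant libraries of both subunits of a heterodimeric triplet polymerase ribozyme were PCR-built, transcribed, and selected once in triplicate, with frozen incubation at −7 °C and capture of gel-excised extended constructs on streptavidin beads before RT-PCR. Illumina sequencing of input and output libraries was filtered to genotypes with ≥10 input reads and ≥1 read per output. Fitness is the logarithm of genotype enrichment over wild-type enrichment, using inverse-variance-weighted replicate averages. The logarithm is base 2.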
For GGAUCUUCUCGAUCUAACAAAAAAGACAAAUCUGCCACAAAGCUUGAGAGCAUCUUCACCUGCAGAGGCGGCAGGCUUCGGUGACGCGAAAGCGCCAACGUUCUCAACUAUGACACGCAAAACGCGUGCUCCGUUGAAUGGAGUUUACCAUG [G58A G59C A60C C75G G84A U90A U148C], the “polymerase ribozyme fitness (log ratio)” value was no more than -4.2. With GGAUCUUCUCGAUCUAACAAAAAAGACAAAUCUGCCACAAAGCUUGAGAGCAUCUUCAUAUGCAGAGGCGGCUGCCUUCGGUGGCGGGAUAGCGCCAACGUUCACAACUAUGACACGCAGAACGCGUGCUCCGUUGAAUGGAGUUUACCAUG [G58A G59U A73U C87G U104A A120G U148C] the “polymerase ribozyme fitness (log ratio)” value was no more than -4.2. For GGAUCUUCUCGAUCUAACAAAAAAGACAAAUCUGCCACAAAGCUUGAGAGCAUCUUCAUAUGCAUAGGCGGCAGCCUUCGGUGGCGCGAUAGCGCGAACGUUCUGAACUAUGACACGCAAAACGCGUGCUCCGUUGAAUGGAGUUUAUCAUG [G58A G59U G65U C96G C105G], the “polymerase ribozyme fitness (log ratio)” value was no more than -4.2. For GGAUCUUCUCGAUCUAACAAAAAAGACAAAUCUGCCACAAAGCUUGAGAGCAUCUUCAGAUACAGAGGCGGCAGCCUGCGGUGGCGAGAUAGCGCCAACGUUCGCAACUAUGACACGCGAAACGCGUGCUCCGUUGAAUGGAGUUUACCAUG [G58A G62A U78G C87A U104G A119G U148C], the “polymerase ribozyme fitness (log ratio)” value was no more than -4.2. With GGAUCUUCUCGAUCUAACAAAAAAGACAAAUCUGCCACAAAGCUUGAGAGCAUCUUCAGAUGCAGACGCGGCAGCCUUCGGUGGCGCGAUAGCGCCAACGUUCUCAACUAUGACACGCAAAACGCGUGCUCCGUUGAAUGAAGUUUAUCAUG [G58A G67C G141A] the “polymerase ribozyme fitness (log ratio)” value was no more than -4.2. For GGAUCUUCUCGAUCUAACAAAAAAGACAAAUCUGCCACAAAGCUUGAGAGCAUCUUCAGAUGCAGAGUCGGCAGACUUCGGUGGCGGGAUAGCGCCAACGUUCACAACUAUGACACGCAAAACGCGUGCUCCGUUGAAUGGAAUUUAUCAUG [G58A G68U C75A C87G U104A G143A], the “polymerase ribozyme fitness (log ratio)” value was no more than -4.2. With GGAUCUUCUCGAUCUAACAAAAAAGACAAAUCUGCCACAAAGCUUGAGAGCAUCUUCAGAUGCAGAGUCGGCAGCCUUCGGUGGCGGGAUAGCGCCAACGUUCUCAACUAUGACACGCAAAACGCGUGCUCCGUUGAAUGGCGUUUAUCAUG [G58A G68U C87G A142C] the “polymerase ribozyme fitness (log ratio)” value was no more than -4.2. With GGAUCUUCUCGAUCUAACAAAAAAGACAAAUCUGCCACAAAGCUUGAGAGCAUCUUCAGAUGCAGAGGCCGCAGCCUUCGGUGGAGCGAUAGCGCCAACGUGCUCAAAUAUGACACGCAAAACGCGUGCUCCGUUGAAUGGAGUUUAUCAUG [G58A G70C C85A U102G C108A] the “polymerase ribozyme fitness (log ratio)” value was no more than -4.2. In the case of GGAUCUUCUCGAUCUAACAAAAAAGACAAAUCUGCCACAAAGCUUGAGAGCAUCUUCAGAUGCAGAGGCGGCAGCCUUCCGUGGCGCGAUACCGCCAAUGUUCUCGACUAUGACACGCAAAACGCGUGCUCCGUUGAAUGGAGUUUGUCAUG [G58A G80C G92C C99U A106G A147G], the “polymerase ribozyme fitness (log ratio)” value is reported as no more than -4.2. In the case of GGAUCUUCUCGAUCUAACAAAAAAGACAAAUCUGCCACAAAGCUUGAGAGCAUCUUCAGAUGCAGAGGCGGCAGCCUUCGGUAGCGCGAUAGCGCCAACGUUCUCAACUAUGACACGCAAAACGCGUGCUCCGUUGAAAGGUGUUUAUCAUG [G58A G83A U139A A142U], the “polymerase ribozyme fitness (log ratio)” value is reported as no more than -4.2. In the case of GGAUCUUCUCGAUCUAACAAAAAAGACAAAUCUGCCACAAAGCUUGAGAGCAUCUUCAGAUGCAGAGGCGGCAGCCUUCGGUGACGCGAUAGCGCCAACGUUCACAAGUAUAACACGCAAAACGCGUGCUCCGUUGAAUGGAGUUUAUCAUG [G58A G84A U104A C108G G112A], the “polymerase ribozyme fitness (log ratio)” value is reported as no more than -4.2. In the case of GGAUCUUCUCGAUCUAACAAAAAAGACAAAUCUGCCACAAAGCUUGAGAGCAUCUUCAGAUGCAGAGGCGGCAGCCUUCGGUGACGCGAUAGCGCCAACGUUCGCAACUAUGACACGCAAAACGCUUGCUCCGUUGAAUGGAGUUUAUCAUG [G58A G84A U104G G126U], the “polymerase ribozyme fitness (log ratio)” value is reported as -0.778. With GGAUCUUCUCGAUCUAACAAAAAAGACAAAUCUGCCACAAAGCUUGAGAGCAUCUUCAGAUGCAGAGGCGGCAGCCUUCGGUGGCACGAUAGCGCCAACGUUCUCAACUAUGACACGCAAAACGCGUGCUCCGUUGAAUGGAGUUUAUCAUG [G58A G86A] the “polymerase ribozyme fitness (log ratio)” value was -1.63. With GGAUCUUCUCGAUCUAACAAAAAAGACAAAUCUGCCACAAAGCUUGAGAGCAUCUUCAGAUGCAGAGGCGGCAGCCUUCGGUGGCUCGAUAGCGCCAGCGUCCUCAACUAUGACACGCAAAACGCGUGCUCCGUUGAAUGGAAGUUAUCAUG [G58A G86U A98G U102C G143A U144G] the “polymerase ribozyme fitness (log ratio)” value was no more than -4.2. With GGAUCUUCUCGAUCUAACAAAAAAGACAAAUCUGCCACAAAGCUUGAGAGCAUCUUCAGAUGCAGAGGCGGCAGCCUUCGGUGGCGCGAUAGCGCCAACGUUCUCAACUAUGACACGCAAAACGCGUGCUCCGUUGAAUGGAUUUUAUCAUG [G58A G143U] the “polymerase ribozyme fitness (log ratio)” value was -1.82. For GGAUCUUCUCGAUCUAACAAAAAAGACAAAUCUGCCACAAAGCUUGAGAGCAUCUUCAGAAGCAGAGGCGGCAGCCUUCGGUGGCGAGAUAGCGCCAACGUUCUCAACUAUGACACACAAAACGCGUGCUCCGUUGAAUGGAGUUUAUCAUG [G58A U61A C87A G117A], the “polymerase ribozyme fitness (log ratio)” value was no more than -4.2. With GGAUCUUCUCGAUCUAACAAAAAAGACAAAUCUGCCACAAAGCUUGAGAGCAUCUUCAGAGGCAGAGGCGGCAGCCUUCGGUGGCGCGAUAGCGCCAACGUUCUCAACUAUGACACGCAAAACGCGUGCUCCGUUGAAUGGAGUUUAUCAUG [G58A U61G] the “polymerase ribozyme fitness (log ratio)” value was -1.49. For GGAUCUUCUCGAUCUAACAAAAAAGACAAAUCUGCCACAAAGCUUGAGAGCAUCUUCAGAUGCAGAGGCGGCAGCCAUCGGUGGCGCGAUAGCGCCAACGUUCUCAACUAUGACACGCAAAACGCGUGCUCCGUUGAAUGGAGUUUAUCAUG [G58A U77A], the “polymerase ribozyme fitness (log ratio)” value was no more than -4.2. With GGAUCUUCUCGAUCUAACAAAAAAGACAAAUCUGCCACAAAGCUUGAGAGCAUCUUCAGAUGCAGAGGCGGCAGCCGUCGGUGGCGCAAUAGCGCCAACGUUGUCAACUAUGACACGCAAAACGCGUGCUCCGUUGUAUGGAGUUUAUCAUG [G58A U77G G88A C103G A137U] the “polymerase ribozyme fitness (log ratio)” value was no more than -4.2.
